According to ChEMBL document CHEMBL4888484, “Replenishing the malaria drug discovery pipeline: Screening and hit evaluation of the MMV Hit Generation Library 1 (HGL1) against asexual blood stage Plasmodium falciparum ,using a nano luciferase reporter read-out” (2022):
Out of some 150,000 compounds screened, about 540 (0.36%) showed an effect of 50% or more. The list shows a part of the results.

The molecules below were run on Plasmodium falciparum (assay: Primary screen in NF54 nanoGlo assay, in single point, at 2uM, 72h; a lower Z score goes with more inhibition). Conditions: timepoint 72 hour.
Assay type: functional, Erythrocyte

| SMILES | % Inhibition [%] | Z score |
| --- | --- | --- |
| CC(C)[C@H](CO)N(C)C(=O)c1cccc(-c2ccc(O)c(-c3ccno3)c2)c1 | -13 | 2.3 |
| O=C(c1ccc2c(c1)CCC2)N1CCCC1 | -12 | 1.46 |
| Cc1cccn2c(Nc3ccccc3)c(-c3ccc(N4CCOCC4)cc3)nc12 | -12 | 1.95 |
| Cc1ccc(O)c(CN2CC[C@H](c3sccc3C)[C@@H](O)C2)n1 | -10 | 1.28 |
| CN1CCN(CC2(C)CCN(S(=O)(=O)C[C@H]3CCCCO3)CC2)CC1 | -8 | 1.61 |
| O=S(=O)(C[C@H]1CCOC1)N1CCN(c2nc[nH]n2)CC1 | -12 | 1.51 |
| Cc1cnc(C2CC2)n1[C@H]1CCCN(C(=O)c2cccc3[nH]ccc23)C1 | -15 | 1.87 |
| CC1CN(S(=O)(=O)c2cccs2)C(C)CN1S(=O)(=O)c1cccs1 (stereo not given) | 2 | -0.26 |
| CC(C)(C)OC(=O)NC1CCC(C(=O)Nc2ccsc2)C1 (stereo not given) | -8 | 1.2 |
| Cc1ccc(NC(=O)OCC(F)(F)F)cc1C | -6 | 0.63 |
| COc1ccc(C(=O)NCCc2ccccc2OC)nn1 | -6 | 0.72 |
| COc1ccc(NC(=O)c2cc(C3CC3)nc3ccccc23)c(OC)c1 | -4 | 0.6 |
| Cc1csc(CNC(=O)Nc2cccnc2)n1 | -4 | 0.72 |
| Cc1noc(NC(=O)COc2ccc(-c3ccccc3)cc2Cl)n1 | -6 | 1.16 |
| CC(C)c1nc(CN2CCN(c3ncccn3)CC2)cs1 | 0 | 0.05 |
| O=C(c1ccccc1)N1CCO[C@@H](CC2CCCCC2)C1 | -7 | 1.22 |
| O=C1C[C@H](N2CCN(S(=O)(=O)c3cccs3)CC2)C(=O)N1CCc1ccccc1 | -30 | 3 |
| COCCn1ccnc1CN1CC(c2ccncc2)C1 | -7 | 1.29 |
| CNc1nc(C)cc(C(=O)N(CC2CCC2)CC(F)(F)F)n1 | -2 | 0.28 |
| Cc1cc(CN(C)Cc2cn3c(C)cccc3n2)no1 | -24 | 3.72 |
| O=C(c1ccn(C(=O)NC2CCCCC2)n1)N1CCCCC1 | -17 | 2.3 |
| CCCCc1cc(NCCc2c(C)n[nH]c2C)ncn1 | -3 | 0.62 |

| SMILES | % Inhibition [%] | Z score |
| --- | --- | --- |
| Cc1nn(CC(=O)Nc2cccc(F)c2)c(=O)n1C | -5 | 0.62 |
| O=C(COc1cccc(-c2nnco2)c1)NC(C1CC1)C1CC1 | 6 | -0.72 |
| COC(=O)N(C)CC(=O)N[C@@H](C)c1cccs1 | -1 | 0.06 |
| Cc1ccc(S(=O)(=O)NCCC2CCN(C(=O)NC3CCCCC3)CC2)cc1 | 7 | -1.17 |
| CCOC1CC(O)C12CCN(c1nc(C)cc(C)n1)CC2 (stereo not given) | -19 | 1.62 |
| Cc1noc([C@H](C)Nc2ccc3c(c2)OCO3)n1 | -7 | 1.32 |
| COC(=O)CN1CCC(Nc2ncc(C)c(N(C)C)n2)CC1 | 2 | -0.37 |
| CO[C@H]1C[C@@H](CNc2nc(-c3ccnc(C(F)(F)F)c3)cs2)C1 | -11 | 1.47 |
| O=C(NCc1cccc(C(F)(F)F)n1)c1ccnn1CC(F)(F)F | -4 | 0.64 |
| Cn1c(=O)c2c(n(C)c1=O)n(Cc1ccccc1Cl)c(=O)n2Cc1ccc(Cl)cc1Cl | -7 | 0.93 |
| O=C(c1ccccc1OC(F)F)N1CCN(Cc2ccc(Cl)s2)CC1 | -21 | 1.85 |
| C[C@H](NC(=O)CCc1nc2ccccc2c(=O)[nH]1)c1ccncc1 | -15 | 2.09 |
| Cc1ccc(NC(=O)Cn2cnc3cc4c(cc32)OCCO4)c(C)c1 | -15 | 1.48 |
| CCc1[nH]nc(-c2cccc(OC)c2)c1NC(=O)C1CCCC1 | 3 | -0.51 |
| O=C(N[C@H](C(=O)O)c1ccccc1)c1n[nH]c2ccccc12 | -5 | 0.64 |
| CCN1CCN(C(=O)CCC2CCN(C(=O)c3ccc4c(c3)OCCO4)CC2)CC1 | -17 | 2.33 |
| CCN1C[C@@H](NC(=O)c2cccc(-c3cc(C)nc4ccccc34)c2)CC1=O | 2 | -0.22 |
| CCC(C)NC(=O)c1coc(CN(Cc2cccc(F)c2)C(C)c2ccccc2)n1 (stereo not given) | -6 | 0.6 |
| COCCn1nc(C(=O)NCCc2c(C)nn(C)c2C)c2c1CCOC2 | -4 | 0.47 |
| Cc1nc(C(C)C)sc1C(=O)N1CCS(=O)(=O)CC1 | -4 | 0.82 |
| O=C(c1sccc1Cl)N1CCN(CC2CC2)[C@@H]2CS(=O)(=O)C[C@@H]21 | -26 | 3.32 |
| C[C@H](NC(=O)c1ccc(-c2[nH]nc3c2CCCc2ccccc2-3)cc1)c1ccccc1 | -11 | 1.54 |

| SMILES | % Inhibition [%] | Z score |
| --- | --- | --- |
| Cc1ccc(Oc2cc3c(cc2S(=O)(=O)N2CCC(C)CC2)C(=O)Nc2ccc(C)cc2O3)cc1 | -7 | 1.35 |
| Nc1cc(C(=O)N[C@H]2CCCN(C3CCCCCC3)C2)ccn1 | -4 | 0.52 |
| CN(CCN(C)C1CC1)C(=O)c1ncsc1Br | -10 | 1.9 |
| Cc1nn(C[C@H](O)c2ccc(CC(C)C)cc2)c(=O)c(C#N)c1C | 4 | -0.78 |
| CC(C)[C@@H](c1nc(N(C)C)no1)N1CCCS1(=O)=O | -17 | 1.78 |
| O=C(O)Cc1cccc(C(=O)N2CC[C@@H](Oc3ccccc3)C2)c1 | -11 | 1.17 |
| CS(=O)(=O)c1ccc2nc(NC(=O)[C@H]3CC(=O)N(CCc4ccc(F)cc4)C3)sc2c1 | -20 | 2.89 |
| COC(=O)CN1CCN(C(=O)c2ccc3ncsc3c2)CC1=O | -4 | 0.69 |
| CCCN1CCN(CCCNC(=O)C2CCN(Cc3cn(C)c4ccc(OC)cc34)CC2)CC1 | 8 | -1.38 |
| CCn1c(-c2cc(C)cs2)nnc1N1CC[C@H](N2CCN(C(C)C)CC2)C1 | -13 | 1.54 |
| CCc1ccc([C@@H](C)C(=O)Nc2nccc(=O)n2C)cc1 | -6 | 0.63 |
| CN(C)c1ccccc1C(=O)N1CCC(c2nnc(CO)n2C)CC1 | 2 | -0.29 |
| CCC(=O)N(CC)CC(=O)Nc1nc(-c2ccccc2)cn1-c1ccccc1 | -11 | 1.39 |
| CCOC(=O)NCCC(=O)N[C@@H](C)c1cccs1 | 2 | -0.27 |
| O=C(Nc1cc(S(=O)(=O)N2CCCC2)ccn1)C1CC2CCC1C2 (stereo not given) | -26 | 2.9 |
| Cc1nc(C)c(F)c(NC2CCC3(CC2)NC(=O)NC3=O)n1 (stereo not given) | 14 | -1.59 |
| Cc1csc(NC(=O)[C@@H]2CCCO2)n1 | -1 | 0.28 |
| COC1CCCCCC1NC(=O)N(CC(C)(C)O)C(C)C (stereo not given) | -4 | 0.73 |
| CC[C@H](NCC(=O)N(C)C)c1ccccc1Br | -6 | 0.86 |
| CC(Oc1ccccc1)C(=O)N1CCN(CC(OCc2ccc(C#N)cc2)c2cccc(N3CCCC3)c2)CC1 (stereo not given) | -12 | 1.69 |
| CCN(CC)CC1CCN(C(C)c2nc(C(C)(C)C)no2)C1 (stereo not given) | -4 | 0.44 |
| Cc1ccc(-c2ccc(S(=O)(=O)N3CCC(N)CC3)cc2)cc1C(F)(F)F | 21 | -3.31 |

| SMILES | % Inhibition [%] | Z score |
| --- | --- | --- |
| O=S(=O)(NCc1ccc2c(c1)OCO2)c1ccc(-c2cnc(C3CCC3)o2)s1 | -12 | 1.32 |
| OC1CC(C2CCCCC2)N(Cc2ccncc2)C1 (stereo not given) | -6 | 0.86 |
| CCc1nccn1CCC(=O)NCCc1nc2ccccc2o1 | -5 | 0.62 |
| COCCOc1ccccc1N1CCN(C(=O)[C@@H]2COCCO2)CC1 | -8 | 1.15 |
| COCCN1C[C@]2(CCCN(C(=O)c3ccc4nccnc4c3)C2)CCC1=O | 1 | -0.08 |
| CC(C)[C@H](CO)CNS(=O)(=O)c1cn[nH]c1 | -14 | 1.32 |
| O=C(NCCC1CCCCO1)C(O)c1ccc(Br)cc1 (stereo not given) | -2 | 0.17 |
| COCc1nc(COc2ccccc2OC)n(C2CCCCC2)n1 | -8 | 0.95 |
| COC(=O)N[C@H]1CCC2C3CC[C@H]4C[C@H](O)CC[C@]4(C)C3CC[C@@]21C (stereo not given in full) | -24 | 3.08 |
| Cc1ccc2cc(C(=O)N(C)Cc3nccn3C)ccc2n1 | -4 | 0.38 |
| CCC(=O)Nc1ccc(-c2nc3c(ccc4ccccc43)o2)cc1 | -8 | 1.55 |
| CN=C(NCCCOCCOC)NCCOc1cccc(C)c1 | -4 | 0.58 |
| C[C@@]1(CO)CN(Cc2ccccc2)C[C@@H]2CN(C(=O)NC3CCCCC3)CCN21 | -7 | 1.03 |
| CCc1ccc(-c2nn(CC)c(=O)c3c2CCCC3)cc1S(=O)(=O)N1CCCCCC1 | -8 | 1.21 |
| CCn1ccc(C(=O)N2C[C@H]3CNC(=O)[C@]34CCCC[C@@H]24)n1 | -9 | 1.42 |
| Cc1c(Br)cccc1CCNC(=O)c1ncoc1C1CC1 | -7 | 0.91 |
| CCCCOc1ncccc1CNC(=O)c1ocnc1C(F)(F)F | -17 | 1.8 |
| C[C@@]1(C(=O)NC2CCCCCCC2)CN(S(C)(=O)=O)CC(=O)N1Cc1cccc(F)c1 | -17 | 2.17 |
| CCCCN1CCN(C(=O)c2nc3cccnc3n(CC)c2=O)CC1 | -5 | 0.61 |
